Source: patent US20250163129A1 (IMMUNOS THERAPEUTICS, published 2025)

Molecular target: T1, LILRB2, c-terminally biotinylated (BPS Bioscience #100335) (UniProt Q8N423 22-458, limits assumed, C-terminal biotin)
T1 construct: Bought reagent immobilised on streptavidin plates
Test: ELISA, biotinylated LILRB2 on streptavidin plate, fusion protein titrated, APC anti-human IgG detection

T1 sequence (Q8N423 22-458 limits assumed): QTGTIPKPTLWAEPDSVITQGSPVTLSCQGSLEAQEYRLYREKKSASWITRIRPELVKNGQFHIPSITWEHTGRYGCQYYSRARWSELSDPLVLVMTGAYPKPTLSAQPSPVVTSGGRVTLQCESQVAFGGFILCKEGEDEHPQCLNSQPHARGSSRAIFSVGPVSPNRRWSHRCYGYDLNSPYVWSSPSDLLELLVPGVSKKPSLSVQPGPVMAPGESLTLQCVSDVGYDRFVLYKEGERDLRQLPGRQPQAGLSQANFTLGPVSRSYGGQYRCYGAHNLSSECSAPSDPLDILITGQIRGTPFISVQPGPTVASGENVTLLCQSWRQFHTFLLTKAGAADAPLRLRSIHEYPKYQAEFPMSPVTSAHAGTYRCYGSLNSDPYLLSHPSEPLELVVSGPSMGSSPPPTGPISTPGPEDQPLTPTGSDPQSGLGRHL

Row | Binder | EC50 [nM]
1 | wildtype HLA-B57 IgG4 Fc fusion protein (dimer) lacking β2m (Fc fusion, also called β2m-free HLA-B57; non-β2m-associated HLA-B57 fusion protein) MHC heavy: GSHSMRYFYTAMSRPGRGEPRFIAVGYVDDTQFVRFDSDAASPRMAPRAPWIEQEGPEYWDGETRNMKASAQTYRENLRIALRYYNQSEAGSHIIQVMYGCDVGPDGRLLRGHDQSAYDGKDYIALNEDLSSWTAADTAAQITQRKWEAARVAEQLRAYLEGLCVEWLRRYLENGKETLQRADPPKTHVTHHPISDHEATLRCWALGFYPAEITLTWQRDGEDQTQDTELVETRPAGDRTFQKWAAVVVPSGEEQRYTCHVQHEGLPKPLTLRWEPSSQSGGGGSGGGGS[human IgG4 Fc with S228P (EU numbers) cut from this listing] | 21
2 | HLA-B57(A46E/V97R) IgG4 Fc fusion protein (dimer) lacking β2m (Fc fusion, β2m was removed by size exclusion chromatography under acidic conditions; also called non-β2m-associated HLA-B57^(A46E/V97R) fusion protein; variant HLA-B57 fusion protein) MHC heavy: GSHSMRYFYTAMSRPGRGEPRFIAVGYVDDTQFVRFDSDAASPRMEPRAPWIEQEGPEYWDGETRNMKASAQTYRENLRIALRYYNQSEAGSHIIQRMYGCDVGPDGRLLRGHDQSAYDGKDYIALNEDLSSWTAADTAAQITQRKWEAARVAEQLRAYLEGLCVEWLRRYLENGKETLQRADPPKTHVTHHPISDHEATLRCWALGFYPAEITLTWQRDGEDQTQDTELVETRPAGDRTFQKWAAVVVPSGEEQRYTCHVQHEGLPKPLTLRWEPSSQSGGGGSGGGGS[human IgG4 Fc with S228P (EU numbers) cut from this listing] | 8.3
